Measured values reported in the supplement of paper PMC3334620.
In all, about 33,000 sequences were measured (“E-score (-0.5 to 0.5)”: median about -0.011, highest 2% from about 0.28 on). The list shows a part of the results.

target: T1, Gcr1 (UniProt P07261); assay: PBM E-score (8-mer binding enrichment) (E-score (-0.5 to 0.5)); higher = stronger / more preferred TF binding; most listed sequences are background and not binding sites; conditions: protein concentration: 100 nM; construct: GST-full length
T1 sequence: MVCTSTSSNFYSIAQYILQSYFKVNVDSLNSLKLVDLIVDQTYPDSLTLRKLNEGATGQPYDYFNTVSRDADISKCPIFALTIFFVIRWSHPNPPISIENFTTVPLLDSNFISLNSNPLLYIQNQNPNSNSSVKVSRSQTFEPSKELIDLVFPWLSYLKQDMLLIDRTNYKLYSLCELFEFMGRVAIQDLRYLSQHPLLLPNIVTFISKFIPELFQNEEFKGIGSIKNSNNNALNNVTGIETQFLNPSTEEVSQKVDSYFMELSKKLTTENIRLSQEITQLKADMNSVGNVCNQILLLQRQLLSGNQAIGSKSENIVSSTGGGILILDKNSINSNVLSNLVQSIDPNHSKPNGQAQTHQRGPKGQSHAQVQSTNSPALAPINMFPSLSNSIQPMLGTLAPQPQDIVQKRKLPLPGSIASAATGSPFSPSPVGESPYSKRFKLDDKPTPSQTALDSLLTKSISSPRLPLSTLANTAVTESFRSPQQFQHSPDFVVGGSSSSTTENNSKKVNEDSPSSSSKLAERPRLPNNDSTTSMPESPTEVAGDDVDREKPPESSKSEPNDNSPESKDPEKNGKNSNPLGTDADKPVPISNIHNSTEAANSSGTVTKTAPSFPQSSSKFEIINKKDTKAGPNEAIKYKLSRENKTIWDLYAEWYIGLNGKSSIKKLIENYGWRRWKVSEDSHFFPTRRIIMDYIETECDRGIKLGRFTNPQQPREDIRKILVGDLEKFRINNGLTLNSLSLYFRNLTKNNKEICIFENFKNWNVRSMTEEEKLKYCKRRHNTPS
Summary of the method: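 Yeast transcription factors, full-length or as DNA-binding domains, were expressed with a GST tag using PURExpress in vitro transcription/translation. At about 100-200 nM they were applied to universal all-10-mer Agilent arrays, double-stranded by primer extension on fresh or once-stripped slides. Fluorescent anti-GST detected bound protein, and masliner normalised the scans. E-scores for ungapped eight-base words, pooled with reverse complements, came from the Universal PBM Analysis Suite.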

Sequence | PBM E-score
CATGCGCC | -0.22
GGTAGCAC | 0.0683
GTTTCGGA | 0.199
AGCATACA | -0.0119
GAATGCGA | 0.0264
CTATCCAG | -0.101
AGTAGCTA | 0.181
CACAACGC | -0.043
CCTCCCAG | -0.269
ATTATTTC | 0.00814
AGGCCGTG | -0.129
AAGTAATT | 0.104
GGGATCAA | 0.146
GACGGACA | -0.264
AGCCTTAT | 0.0318
GAGAGAGC | -0.133
CGGCCGAA | -0.188
CTCAAGCC | -0.0864
CGGTGGAG | -0.0338
ACGACTGA | -0.0299
CAACTCGA | -0.0754
AGTAGGCG | 0.205
CTATAGTA | 0.0817
TGAAACCA | 0.106

Sequence | PBM E-score
ATTGTCTC | 0.00727
CGCCATGA | -0.128
TACTGTAA | 0.0376
AATTTCCG | 0.155
ATATCAGG | 0.0654
ACCCTCAA | -0.169
GGGACCCA | 0.303
CGAGATGC | 0.0363
ATCCTTGA | 0.0086
GGTGGGAA | 0.0991
CCTCCGCC | -0.168
AATAGCTG | -0.06
CACGCGCA | -0.0427
ATTTCAAA | 0.00653
ACCGAGGG | -0.315
AAGAAATG | 0.0597
CCTCACCA | 0.143
AGGGCTCG | -0.314
ATTTTTGA | 0.0473
AAGTGGTA | 0.176
ATTTGGTA | 0.23
CGATTAAA | 0.13
GATCTGAC | -0.152
CTACTCTA | -0.077

Sequence | PBM E-score
AGCGCGGC | -0.0419
CGGGTAAA | 0.112
CCCGGGTC | -0.0913
CATCCTCG | 0.0352
CTATTGAG | 0.0808
GATTAATC | -0.129
AGCGTTCC | 0.0882
ACTTAATG | 0.00444
AACTATTA | 0.0296
CTGGTCCC | -0.131
CCAACGAG | 0.00967
ATATGCAA | 0.0123
GTCGCTAA | 0.0152
ATATTATG | 0.132
TTTCGAAA | -0.054
AGCCGATG | 0.0755
AAATTAAC | 0.0597
ACGGAGAT | -0.0711
ATTAGACA | 0.0379
AGGTACTG | -0.0802
GGGACCAC | 0.21
ACGCATAT | -0.15
CAATTATG | 0.145
ACTGGCAT | 0.124

Sequence | PBM E-score
CGGGGCCA | -0.0236
CACACCTA | -0.0263
ATCAAACA | -0.0652
AATCCCAA | 0.225
ATATTGAT | 0.155
CCTCGTTC | -0.0945
TATTACGA | 0.109
CAGTCGCA | -0.107
ACGCATCT | 0.151
GCATGTCC | -0.186
ACGCATAG | -0.117
ATCGTGTA | 0.156
CTCGGAAC | 0.0711
CTGTTCTA | -0.09
CATGATAA | -0.00435
CGGCTCAG | 0.113
TGTAGACA | -0.0678
ACAAGCGC | -0.115
CTGCCACC | -0.00834
ACCGAATC | -0.0242
AATTGTAC | 0.00173
ACGGCCCG | -0.186
